{"source": "PubChem BioAssay (NCATS)", "note": "The list shows a part of the results. These are further read-outs of the screen, such as a control signal, another cell line or another target. No call is given for them. Most of these compounds were active or inconclusive in the main read-out, so they are no random draw. Words in brackets tell the shape of the fitted curve; partial curves, single points and poor fits give uncertain potencies. Tags give direction and shape of the fitted curve.", "data": [{"test": "qHTS Assay for Lipid Storage Modulators (AID 1519)", "settings": "Drosophila S3 cells, BODIPY lipid droplet/cell ratio, laser cytometry; measured here: cell count channel max response; cells loaded with oleic acid", "outline": "(§1)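 Cells seeded at 5,000 per well were treated with compounds over a concentration series and loaded with oleic acid (400 uM, as added). Lipid droplet fluorescence (488 nm excitation, 500-530 nm channel) was read by laser-scanning cytometry and normalized to 20 uM Triacsin C.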", "units": {"max response": "%"}, "values": [{"compound": "c1ccc(Nc2ncnc3ccc(-c4ccoc4)cc23)cc1", "max response": 14.3}, {"compound": "Cc1noc(C)c1C(=O)N1CCC[C@@]2(CCN(Cc3nccs3)C2)C1", "max response": 25.2}, {"compound": "COc1ccc(NC(=O)N2CCC3(CC2)CCN(C(=O)c2ccco2)CC3)cc1", "max response": 12.8}, {"compound": "O=C(c1ccncc1)N1CCC2(CC1)CCN(c1ncccn1)CC2", "max response": 18.3}, {"compound": "Cc1nc2cncnc2n(Cc2ccc(F)cc2)c1=O", "max response": 28.3}, {"compound": "CN1CCN(c2ncc3nc(-c4ccccc4)c(=O)n(Cc4ccc(F)cc4)c3n2)CC1", "max response": 8.6}, {"compound": "CN(C)c1ncc2nc(-c3cc(F)cc(F)c3)c(=O)n(Cc3cccs3)c2n1", "max response": 14.7}, {"compound": "O=c1c(CCc2ccccc2)nc2cncnc2n1Cc1ccccc1", "max response": 13.1}, {"compound": "CCN(CC)CCOC(=O)c1ccc(N)cc1", "max response": 14.8}, {"compound": "CCNc1ncc2nc(-c3ccccc3)c(=O)n(C)c2n1", "max response": -43.3}, {"compound": "O=C1C=CC2=C3c4cc(O)c(O)cc4C[C@]3(O)COC2=C1", "max response": -5.59}, {"compound": "COCCn1c(=O)c(-c2cccc(C#N)c2)nc2cnc(N3CCOCC3)nc21", "max response": 33}, {"compound": "COc1cc2c(cc1OC)-c1cc3ccc(OC)c(OC)c3c[n+]1CC2", "max response": 28.8}, {"compound": "c1cncc(-c2ccc3ncnc(N4CCNCC4)c3c2)c1", "max response": 14.6}, {"compound": "COc1cccc(Nc2ncc3nc(-c4cc(F)cc(F)c4)c(=O)n(C[C@H]4CCCO4)c3n2)c1", "max response": 138}, {"compound": "CS(C)(=O)=O", "max response": 26.7}, {"compound": "O=C(NCCO[N+](=O)[O-])c1cccnc1", "max response": 15.8}, {"compound": "CNC1C(O)C(O[C@H]2C(O)[C@@H](OC3OC(CN)=CCC3N)[C@H](N)C[C@@H]2N)OC[C@]1(C)O", "note": "(stereo not given in full)", "max response": 28.6}, {"compound": "CC(=O)N1CCC2(CCCN(c3ccc(-c4ccccc4)cc3)C2)CC1", "max response": 19}, {"compound": "COCCn1c(=O)c(-c2ccccc2)nc2cnc(Oc3ccccc3)nc21", "max response": 6.88}, {"compound": "COc1ccc([C@@H]2CC(=O)c3c(O)cc(O)cc3O2)cc1O", "max response": 25.1}, {"compound": "CC(=O)N1CCC2(CCCN(c3ncccn3)C2)CC1", "max response": 7.35}, {"compound": "CCNc1ncc2nc(-c3ccc(Cl)cc3)c(=O)n(Cc3ccc(F)cc3)c2n1", "max response": 17.7}, {"compound": "COCCn1c(=O)c(-c2cccs2)nc2cnc(OC)nc21", "max response": -2.87}, {"compound": "CCCCCCCCCCCCCCC[C@@H](O)[C@@H](N)CO", "max response": -5.61}, {"compound": "N#Cc1ccc(CN2CCC3(CC2)CCN(C(=O)c2cnccn2)CC3)cc1", "max response": 11.8}, {"compound": "Fc1ccc(Nc2ncnc3ccc(-c4ccoc4)cc23)cc1", "max response": 28.6}, {"compound": "Cc1cccc(CNc2cc(-c3cccc(C#N)c3)ncn2)c1", "max response": -22.1}, {"compound": "COc1ccc(NC(=O)N2CCCC3(CCN(C(=O)c4cccn4C)CC3)C2)cc1", "max response": 19.7}, {"compound": "O=C1CC(c2ccc(O)cc2)Oc2ccccc21", "note": "(stereo not given)", "max response": -3.38}, {"compound": "COc1ccc(-n2c(=O)c(C)nc3cnc(Nc4ccccc4)nc32)cc1", "max response": 7.63}, {"compound": "CN(C)C(=O)c1ccc(-c2ccc3ncnc(NCc4ccccc4)c3c2)cc1", "max response": 19.6}, {"compound": "N#Cc1ccc(CN2CC3(CCN(C(=O)c4cc(C(F)(F)F)cc(C(F)(F)F)c4)CC3)C2)cc1", "max response": -27}, {"compound": "CC(=O)OCC1OC(Oc2cc(OC(C)=O)c3c(=O)cc(-c4ccc(OC(C)=O)c(OC(C)=O)c4)oc3c2)C(OC(C)=O)C(OC(C)=O)C1OC(C)=O", "note": "(stereo not given)", "max response": 25.1}, {"compound": "C[C@]12CCC3c4ccc(O)cc4CCC3C1CCC2OC(=O)CCC1CCCC1", "note": "(stereo not given in full)", "max response": 1.5}, {"compound": "O=c1cnc2cnc(Oc3ccccc3)nc2n1C1CC1", "max response": 26.6}, {"compound": "C=C1C(=O)OC2C[C@@]3(C)CCCC(C)C3=CC12", "note": "(stereo not given in full)", "max response": 30.5}, {"compound": "CN1CCN(c2nc(-c3ccc(N(C)C)cc3)nc3ccccc23)CC1", "max response": 16.6}, {"compound": "COc1cccc(-c2cc(=O)c3cc(O)ccc3o2)c1", "max response": 72.9}, {"compound": "COc1ccc(C(=O)N2CCC3(CCN(Cc4cc(C(F)(F)F)cc(C(F)(F)F)c4)CC3)CC2)cc1", "max response": 17.6}]}, {"test": "qHTS Assay for Lipid Storage Modulators (AID 1519)", "settings": "Drosophila S3 cells, BODIPY lipid droplet/cell ratio, laser cytometry; measured here: cell number channel AC50; cells loaded with oleic acid", "outline": "as §1", "values": [{"compound": "CN(C)c1ncc2nc(-c3cc(F)cc(F)c3)c(=O)n(Cc3cccs3)c2n1", "AC50": "4.47 µM [rising, partial curve]"}, {"compound": "COCCn1c(=O)c(-c2cccc(C#N)c2)nc2cnc(N3CCOCC3)nc21", "AC50": "0.891 µM [rising, full curve, poor fit]"}, {"compound": "COc1cccc(Nc2ncc3nc(-c4cc(F)cc(F)c4)c(=O)n(C[C@H]4CCCO4)c3n2)c1", "AC50": "28.2 µM [rising, partial curve]"}, {"compound": "COCCn1c(=O)c(-c2cccs2)nc2cnc(OC)nc21", "AC50": "3.16 µM [rising, single point]"}, {"compound": "Fc1ccc(Nc2ncnc3ccc(-c4ccoc4)cc23)cc1", "AC50": "3.16 µM [rising, full curve, poor fit]"}, {"compound": "C=C1C(=O)OC2C[C@@]3(C)CCCC(C)C3=CC12", "note": "(stereo not given in full)", "AC50": "39.8 µM [rising, single point]"}, {"compound": "COc1ccc(C(=O)N2CCC3(CCN(Cc4cc(C(F)(F)F)cc(C(F)(F)F)c4)CC3)CC2)cc1", "AC50": "5.01 µM [rising, partial curve]"}]}, {"test": "qHTS Assay for Lipid Storage Modulators (AID 1519)", "settings": "Drosophila S3 cells, BODIPY lipid droplet/cell ratio, laser cytometry; measured here: lipid (BODIPY) channel AC50; cells loaded with oleic acid", "outline": "as §1", "values": [{"compound": "c1ccc(Nc2ncnc3ccc(-c4ccoc4)cc23)cc1", "AC50": "0.00631 µM [rising, full curve, poor fit]"}, {"compound": "Cc1noc(C)c1C(=O)N1CCC[C@@]2(CCN(Cc3nccs3)C2)C1", "AC50": "0.00562 µM [rising, full curve, poor fit]"}, {"compound": "COc1ccc(NC(=O)N2CCC3(CC2)CCN(C(=O)c2ccco2)CC3)cc1", "AC50": "3.16 µM [rising, full curve, poor fit]"}, {"compound": "O=C(c1ccncc1)N1CCC2(CC1)CCN(c1ncccn1)CC2", "AC50": "4.47 µM [rising, partial curve]"}, {"compound": "Cc1nc2cncnc2n(Cc2ccc(F)cc2)c1=O", "AC50": "2.24 µM [rising, full curve, poor fit]"}, {"compound": "CN1CCN(c2ncc3nc(-c4ccccc4)c(=O)n(Cc4ccc(F)cc4)c3n2)CC1", "AC50": "5.62 µM [rising, partial curve, poor fit]"}, {"compound": "O=c1c(CCc2ccccc2)nc2cncnc2n1Cc1ccccc1", "AC50": "0.0251 µM [rising, full curve, poor fit]"}, {"compound": "CCN(CC)CCOC(=O)c1ccc(N)cc1", "AC50": "17.8 µM [rising, partial curve, poor fit]"}, {"compound": "CCNc1ncc2nc(-c3ccccc3)c(=O)n(C)c2n1", "AC50": "39.8 µM [falling, single point]"}, {"compound": "O=C1C=CC2=C3c4cc(O)c(O)cc4C[C@]3(O)COC2=C1", "AC50": "20 µM [falling, single point]"}, {"compound": "COc1cc2c(cc1OC)-c1cc3ccc(OC)c(OC)c3c[n+]1CC2", "AC50": "20 µM [rising, partial curve]"}, {"compound": "c1cncc(-c2ccc3ncnc(N4CCNCC4)c3c2)c1", "AC50": "0.0447 µM [rising, full curve, poor fit]"}, {"compound": "CS(C)(=O)=O", "AC50": "35.5 µM [rising, partial curve]"}, {"compound": "O=C(NCCO[N+](=O)[O-])c1cccnc1", "AC50": "3.16 µM [rising, full curve, poor fit]"}, {"compound": "CNC1C(O)C(O[C@H]2C(O)[C@@H](OC3OC(CN)=CCC3N)[C@H](N)C[C@@H]2N)OC[C@]1(C)O", "note": "(stereo not given in full)", "AC50": "39.8 µM [rising, partial curve]"}, {"compound": "CC(=O)N1CCC2(CCCN(c3ccc(-c4ccccc4)cc3)C2)CC1", "AC50": "2 µM [rising, partial curve]"}, {"compound": "COCCn1c(=O)c(-c2ccccc2)nc2cnc(Oc3ccccc3)nc21", "AC50": "3.98 µM [rising, partial curve, poor fit]"}, {"compound": "COc1ccc([C@@H]2CC(=O)c3c(O)cc(O)cc3O2)cc1O", "AC50": "3.98 µM [rising, partial curve, poor fit]"}, {"compound": "CC(=O)N1CCC2(CCCN(c3ncccn3)C2)CC1", "AC50": "0.178 µM [rising, full curve, poor fit]"}, {"compound": "CCNc1ncc2nc(-c3ccc(Cl)cc3)c(=O)n(Cc3ccc(F)cc3)c2n1", "AC50": "0.0562 µM [rising, full curve, poor fit]"}, {"compound": "CCCCCCCCCCCCCCC[C@@H](O)[C@@H](N)CO", "AC50": "44.7 µM [falling, single point]"}, {"compound": "N#Cc1ccc(CN2CCC3(CC2)CCN(C(=O)c2cnccn2)CC3)cc1", "AC50": "0.251 µM [rising, partial curve, poor fit]"}, {"compound": "Cc1cccc(CNc2cc(-c3cccc(C#N)c3)ncn2)c1", "AC50": "39.8 µM [falling, single point]"}, {"compound": "COc1ccc(NC(=O)N2CCCC3(CCN(C(=O)c4cccn4C)CC3)C2)cc1", "AC50": "0.0282 µM [rising, full curve, poor fit]"}, {"compound": "O=C1CC(c2ccc(O)cc2)Oc2ccccc21", "note": "(stereo not given)", "AC50": "4.47 µM [rising, partial curve]"}, {"compound": "COc1ccc(-n2c(=O)c(C)nc3cnc(Nc4ccccc4)nc32)cc1", "AC50": "0.112 µM [rising, partial curve, poor fit]"}, {"compound": "CN(C)C(=O)c1ccc(-c2ccc3ncnc(NCc4ccccc4)c3c2)cc1", "AC50": "2.82 µM [rising, full curve, poor fit]"}, {"compound": "N#Cc1ccc(CN2CC3(CCN(C(=O)c4cc(C(F)(F)F)cc(C(F)(F)F)c4)CC3)C2)cc1", "AC50": "31.6 µM [falling, single point]"}, {"compound": "CC(=O)OCC1OC(Oc2cc(OC(C)=O)c3c(=O)cc(-c4ccc(OC(C)=O)c(OC(C)=O)c4)oc3c2)C(OC(C)=O)C(OC(C)=O)C1OC(C)=O", "note": "(stereo not given)", "AC50": "39.8 µM [falling, single point]"}, {"compound": "C[C@]12CCC3c4ccc(O)cc4CCC3C1CCC2OC(=O)CCC1CCCC1", "note": "(stereo not given in full)", "AC50": "39.8 µM [falling, single point]"}, {"compound": "O=c1cnc2cnc(Oc3ccccc3)nc2n1C1CC1", "AC50": "20 µM [rising, single point]"}, {"compound": "CN1CCN(c2nc(-c3ccc(N(C)C)cc3)nc3ccccc23)CC1", "AC50": "2.82 µM [rising, full curve, poor fit]"}, {"compound": "COc1cccc(-c2cc(=O)c3cc(O)ccc3o2)c1", "AC50": "4.47 µM [rising, partial curve]"}]}]}
